Laboratory results from PubChem BioAssay AID463173 (ICCB-Longwood Screening Facility, Harvard Medical School, 2010).
Among all 52,000 compounds or so, about 4,300 (8.3%) were called active. Rule as the data show it: active = survival mostly below about 52% (no sharp cut-off); inactive = mostly above about 56%. The list shows a part of the results.

These compounds were tested on DeltatarO mutant (assay: S. aureus survival, RN4220 and DeltatarO strains – OD600, teichoic acid synthesis inhibitors, primary screen (AID 463173)). Conditions: S. aureus RN4220 wild type/DeltatarO growth, OD600, 18 h, active compounds read low, screened at 18.75 µg/mL (by protocol).

| Compound | survival |
| --- | --- |
| Cc1cc(Br)ccc1NC(=O)c1coc(=O)c2ccccc12 | inactive: 90% |
| Cc1oc2ncn(CC(C)C)c(=O)c2c1C(=O)Nc1cccc(C(F)(F)F)c1 | active: -1% |
| O=C(Nc1ccc(Cl)c(Cl)c1)c1cc(S(=O)(=O)N2CCN(c3cccc(Cl)c3)CC2)ccc1F | inactive: 68% |
| CC(C)c1ccccc1NC(=O)CSc1nnc(COc2ccccc2)o1 | inactive: 84% |
| Cc1ccc(CNC(=O)CN(C)S(=O)(=O)c2ccc(Br)s2)cc1 | inactive: 124% |
| Cc1cccc(-n2c(=O)c3c(c4cc(C)ccc4n3C)n(CC(=O)Nc3ccccc3Cl)c2=O)c1 | inactive: 80% |
| CCCCCn1c(=O)[nH]c2cc(C(=O)NCc3ccc(F)cc3)ccc2c1=O | inactive: 89% |
| COCCNC(=O)c1ccc2c(c1)N(Cc1ccc(C(F)(F)F)cc1)C(=O)c1ccccc1S2 | inactive: 73% |
| CC(NC(=O)c1ccc(CSc2nc3ccncc3n2Cc2ccc(F)cc2)cc1)c1ccccc1 (stereo not drawn) | inactive: 78% |
| CCOC(=O)C1CCN(C(=O)CN(c2cc(Cl)ccc2OC)S(C)(=O)=O)CC1 | inactive: 95% |
| Cc1cccc(OCCCSc2nc(-c3ccc(C(C)(C)C)cc3)nc3cc(=O)[nH]n23)c1C | inactive: 102% |
| c1ccc2c(c1)CNc1ccccc1C2 | inactive: 89% |
| CC(=O)N1CCc2cc(S(=O)(=O)CCC(=O)N3CCN(c4ccccc4F)CC3)ccc21 | inactive: 120% |
| COc1ccccc1Cc1nc2ccccc2nc1SCC(=O)N1CCCc2ccccc21 | inactive: 83% |
| Cc1ccccc1-c1noc(-c2cc(C(C)C)[nH]n2)n1 | inactive: 88% |
| Cc1ccc2[nH]c(=O)c(CN(CC3COCCO3)C(=O)Nc3ccccc3F)cc2c1 (stereo not drawn) | inactive: 96% |
| Cc1cccc(-n2ncc(C(=O)Nc3ccc4c(c3)OCO4)c2C2CCN(C(=O)OC(C)(C)C)CC2)c1 | inactive: 80% |
| COc1ccc(Cl)cc1NC(=O)c1c(NCc2cccs2)sc2c1CCCC2 | inactive: 71% |
| Oc1ccc(NCc2ccccc2OCc2ccccc2Cl)cc1 | active: 52% |
| CN(C)c1ccc(NC(=O)CSC2=Nc3ccccc3C3=NC(CC(=O)NCc4ccc5c(c4)OCO5)C(=O)N23)cc1 (stereo not drawn) | inactive: 123% |
| Cc1ccc(S(=O)(=O)Nc2c(C)nc3nc(C)[nH]n3c2=O)c(C)c1 | inactive: 117% |
| COc1ccc(C(=O)NCc2nnc(SCC(=O)Nc3ccc(F)cc3)n2-c2ccccc2)cc1 | inactive: 121% |

| Compound | survival |
| --- | --- |
| COC(=O)c1ccc(NC(=O)CSc2nc3c(c(=O)n(C)c(=O)n3C)n2Cc2ccccc2)cc1 | inactive: 64% |
| Cc1ccc(NC(=O)Cn2cnc3c(oc4ccccc43)c2=O)cc1 | inactive: 81% |
| CC(C)C1N(c2ccccc2)CCN1c1ccccc1 | inactive: 74% |
| Cc1ccc(C(=O)c2oc3ccccc3c2NC(=O)COc2ccc(C(C)(C)C)cc2)cc1 | inactive: 96% |
| Cc1ccc(COc2cccc3cc(-c4noc(-c5ccc(C)cc5)n4)c(=O)oc23)cc1 | inactive: 82% |
| O=C(NCc1ccccc1Cl)C(=O)NCC(c1cccs1)S(=O)(=O)c1ccccc1 (stereo not drawn) | inactive: 116% |
| N#C/C(=C\c1ccc(-c2ccc(Cl)c(C(=O)O)c2)o1)c1nc2ccccc2[nH]1 | active: 55% |
| Cc1ccc(-n2c(SCc3ccccc3C)nc3[nH]ncc3c2=O)cc1C | inactive: 77% |
| Cc1cccn2c(=O)c3cc(C(=O)NC(C)c4ccccc4)c(=N)n(CCOCCO)c3nc12 (stereo not drawn) | inactive: 76% |
| CCOc1ccccc1N1CC(c2nc3ccccc3n2CCOc2ccccc2OC)CC1=O (stereo not drawn) | inactive: 95% |
| COc1ccc(-c2nnc(SCC(=O)c3ccc([N+](=O)[O-])cc3)o2)cc1OC | inactive: 90% |
| CC(C)c1ccc(NC(=O)CN2C=NS(=O)(=O)c3ccccc32)cc1 | inactive: 91% |
| O=C(CCc1ccccc1)Nc1nnc(CCN2CCCCC2)s1 | inactive: 97% |
| CCC(=O)OC1=CN(Cc2ccccc2)S(=O)(=O)c2ccccc21 | inactive: 75% |
| CCC(=O)C1=C(c2ccc(F)cc2)N(C(=O)CC)n2c(nnc2C2CCCCC2)S1 | inactive: 94% |
| CCN(CC)S(=O)(=O)c1ccc2c(c1)N(CC(=O)Nc1c(C)cc(C)cc1C)C(=O)CS2 | inactive: 75% |
| COC(=O)c1cc2oc(C)cc2n1Cc1ccc(C)cc1 | inactive: 69% |
| O=C(O)CNC(=O)c1nc2ncccn2n1 | inactive: 75% |
| CC(C)c1ccc(-c2noc(SCC(=O)N(C)c3ccc(F)cc3)n2)cc1 | inactive: 122% |
| CCOC(=O)c1cc(OC(=O)c2cccc(F)c2)n(-c2ccccc2)n1 | inactive: 61% |
| CC(=O)N1CCCc2ccc(NC(=O)c3ccc(C(F)(F)F)cc3)cc21 | inactive: 107% |
| CCOc1ccc(N(C(=O)c2ccc(OC)cc2)S(=O)(=O)c2ccc3c(c2)n(C)c(=O)n3C)cc1 | active: 37% |

| Compound | survival |
| --- | --- |
| O=C(NCc1cccnc1)C1CCN(Cc2cc3ccccc3n2Cc2ccccc2)CC1 | inactive: 135% |
| O=C(NN=C1CCCCC1)c1cccc(N2CCCC2=O)c1 | inactive: 104% |
| O=C1CC(c2ccc(F)cc2)c2c(n3c(nc4ccccc43)[nH]c2=O)N1 (stereo not drawn) | inactive: 62% |
| CCCOc1ccc(C(=O)Nc2sc3c(c2C(=O)OCC)CCCCC3)cc1 | active: 24% |
| CC(C)N(C(C)C)S(=O)(=O)c1ccccc1 | inactive: 100% |
| CCc1ccc(CNC(=O)C2CCN(C(=O)c3ccc(-n4ccc5ccccc54)s3)CC2)cc1 | inactive: 89% |
| Cc1ccccc1CS(=O)(=O)c1ncc(Cl)c(C(=O)Nc2nnc(C(C)C)s2)n1 | active: 30% |
| Cc1oc(-c2cccc(Br)c2)nc1CSc1nc2ncccc2[nH]1 | inactive: 78% |
| CCOc1ccc(CCNC(=O)Cn2nc(CC)n3c(cc4c(OC)cccc43)c2=O)cc1OCC | inactive: 129% |
| Cc1cccc(N2CCN(C(=O)CN3C(=O)COc4ccc(S(=O)(=O)N5CCCC5)cc43)CC2)c1C | inactive: 75% |
| CCOC(=O)CCn1ccc(=O)[nH]c1=O | inactive: 98% |
| N#C/C(=C\c1c(Oc2ccc(F)cc2)nc2ccccn2c1=O)c1nc2ccccc2s1 | inactive: 61% |
| COc1cc2cc(C)c(SCC(=O)N3CCN(C(=O)c4ccco4)CC3)nc2cc1OC | inactive: 73% |
| Cc1ccc(NC(=O)C2CCCN(S(=O)(=O)c3c(C)nn(C)c3C)C2)c(C)c1 (stereo not drawn) | inactive: 80% |
| CCOC(=O)N1CCN(Cc2nc3cc(NC(=O)c4ccc([N+](=O)[O-])cc4)ccc3n2C(C)C)CC1 | inactive: 75% |
| CCN1C(=O)c2ccccc2S(=O)c2ccc(C(=O)NCc3ccccc3OC)cc21 (stereo not drawn) | inactive: 68% |
| Cc1cccc(OCCSc2nc3ccccc3n2CC(=O)N2CCOCC2)c1C | inactive: 50% |
| O=S(=O)(Nc1cccc(-c2ccc(N3CCCC3)nn2)c1)c1cc(F)ccc1F | inactive: 88% |
| Cc1cc(Nc2cccc(C(F)(F)F)c2)nc2ccc(NC(=O)c3cccnc3)cc12 | inactive: 124% |
| CCOC(=O)c1c(C)oc2nc(C)nc(N3CCN(c4cccc(C)c4C)CC3)c12 | inactive: 83% |
| CCCCCOc1ccc(NC(=O)Cn2c(-c3cncs3)nc3ccccc32)cc1 | inactive: 86% |
| CC(=O)NC(NC(C)=O)c1ccccc1 | inactive: 83% |

| Compound | survival |
| --- | --- |
| COc1cccc(CNC(=O)Cn2c(SCC(=O)Nc3ccc(C)c(C)c3)nc3ccccc32)c1 | inactive: 87% |
| CSc1ccc(NC(=O)Cn2nnnc2-c2ccccc2F)cc1 | inactive: 81% |
| COc1ccc(S(=O)(=O)NCC(c2ccco2)N2CCN(c3ccccc3F)CC2)cc1C (stereo not drawn) | inactive: 82% |
| COc1cc(/C=C/c2nc3cc(Cl)ccc3c(=O)n2-c2ccc(C)cc2C)cc(OC)c1OC | inactive: 86% |
| CCOC(=O)c1nnn(CC(=O)NC(=O)Nc2ccc(F)cc2)c1C(=O)OCC | inactive: 149% |
| Cc1ccc(-n2nc3cc(C)c(NC(=O)Cc4ccc(Cl)cc4)cc3n2)cc1 | inactive: 64% |
| COc1ccc(CNC(=O)c2ccc3c(c2)N(Cc2ccccc2)CCS3)cc1 | inactive: 69% |
| Cc1ccccc1Nc1nnc(-c2ccc(C)c(S(=O)(=O)N3CCCCC3)c2)c2ccccc12 | inactive: 108% |
| O=C(COc1ccccc1)NS(=O)(=O)c1ccc(N=NN2CCOCC2)cc1 | inactive: 92% |
| Cc1ccccc1C(=O)Nc1ccc2oc(-c3ccc(Cl)c(Cl)c3)nc2c1 | inactive: 64% |
| COc1nnc(-c2ccc(N3CCCCC3)c(NC(=O)c3ccccc3)c2)c2ccccc12 | active: 0% |
| O=C(NCC(c1cccnc1)N1CCc2ccccc21)C(=O)Nc1ccccc1F (stereo not drawn) | inactive: 101% |
| CCc1cccc(NC(=O)c2cccc3c2C(=O)N(C2CCCCC2)C3)c1 | inactive: 85% |
| CC(NC(=O)c1cc(-c2ccc(Cl)cc2)on1)c1ccccc1 (stereo not drawn) | inactive: 142% |
| CCOC(=O)c1c(C)n(S(=O)(=O)c2ccc(C)cc2)c2ccc(NS(=O)(=O)c3ccc(C)cc3)cc12 | inactive: 60% |
| COc1cc(OC)c(NC(=O)c2cn(C)c(=O)c3cc(OC)c(OC)cc23)cc1Cl | inactive: 60% |
| O=C(/C=C/c1ccccc1)N1CCN(Cc2cc(=O)n3nc(-c4ccccc4Cl)sc3n2)CC1 | inactive: 77% |
| CN=C1S/C(=C\c2ccc(N3CCCC3)cc2)C(=O)N1C | inactive: 90% |
| O=C(CN1C(=O)C2(SCC(=O)N2c2ccc(Cl)cc2)c2ccccc21)NCCc1ccccc1 (stereo not drawn) | inactive: 80% |
| CCOc1ccccc1NC(=O)c1c(NC(=O)c2ccncc2)sc2c1CCC(C(C)(C)C)C2 (stereo not drawn) | inactive: 142% |
| COc1ccc(Cl)cc1NS(=O)(=O)c1c(C)[nH]c(=O)[nH]c1=O | inactive: 47% |
| Cc1ccc(O)c(NC(=O)CCSc2nc(-c3ccco3)cc(C(F)(F)F)n2)c1 | active: 28% |
